Reference: patent publication US7902193B2, “Phthalazinone derivatives” (Maybridge Limited, priority 2005, dated 2011)

Molecular target: Mammalian PARP, isolated from Hela cell nuclear extract (Homo sapiens, UniProt P09874)
Assay: PARP inhibition assay (FlashPlate, 3H-NAD) to determine IC50
Assay type: biochemical
Conditions: NAD 5 μM, 30°C, 45 minutes, read-out: IC50 (the concentration at which 50% of the enzyme activity is inhibited)
Description: In order to assess the inhibitory action of the compounds, the following assay was used to determine IC50 values (Dillon, et al., JBS., 8(3), 347-352 (2003)).
All compounds were diluted in DMSO and gave final assay concentrations of between 10 and 0.01 μM, with the DMSO being at a final concentration of 1% per well. The total assay volume per well was 40 μl.
After 10 minutes incubation at 30° C. the reactions were initiated by the addition of a 10 μl reaction mixture, containing NAD (5 μM), ^3H-NAD and 30mer double stranded DNA-oligos. Designated positive and negative reaction wells were done in combination with compound wells (unknowns) in order to calculate % enzyme activities. The plates were then shaken for 2 minutes and incubated at 30° C. for 45 minutes.
Following the incubation, the reactions were quenched by the addition of 50 μl 30% acetic acid to each well. The plates were then shaken for 1 hour at room temperature.
The plates were transferred to a TopCount NXT (TRADE MARK) (Packard, UK) for scintillation counting. Values recorded are counts per minute (cpm) following a 30 second counting of each well.
The % enzyme activity for each compound is then calculated using the following equation: […]
IC50 values (the concentration at which 50% of the enzyme activity is inhibited) were calculated, which are determined over a range of different concentrations, normally from 10 μM down to 0.001 μM. Such IC50 values are used as comparative values to identify increased compound potencies.

Chain of UniProt P09874 (P09874 whole entry): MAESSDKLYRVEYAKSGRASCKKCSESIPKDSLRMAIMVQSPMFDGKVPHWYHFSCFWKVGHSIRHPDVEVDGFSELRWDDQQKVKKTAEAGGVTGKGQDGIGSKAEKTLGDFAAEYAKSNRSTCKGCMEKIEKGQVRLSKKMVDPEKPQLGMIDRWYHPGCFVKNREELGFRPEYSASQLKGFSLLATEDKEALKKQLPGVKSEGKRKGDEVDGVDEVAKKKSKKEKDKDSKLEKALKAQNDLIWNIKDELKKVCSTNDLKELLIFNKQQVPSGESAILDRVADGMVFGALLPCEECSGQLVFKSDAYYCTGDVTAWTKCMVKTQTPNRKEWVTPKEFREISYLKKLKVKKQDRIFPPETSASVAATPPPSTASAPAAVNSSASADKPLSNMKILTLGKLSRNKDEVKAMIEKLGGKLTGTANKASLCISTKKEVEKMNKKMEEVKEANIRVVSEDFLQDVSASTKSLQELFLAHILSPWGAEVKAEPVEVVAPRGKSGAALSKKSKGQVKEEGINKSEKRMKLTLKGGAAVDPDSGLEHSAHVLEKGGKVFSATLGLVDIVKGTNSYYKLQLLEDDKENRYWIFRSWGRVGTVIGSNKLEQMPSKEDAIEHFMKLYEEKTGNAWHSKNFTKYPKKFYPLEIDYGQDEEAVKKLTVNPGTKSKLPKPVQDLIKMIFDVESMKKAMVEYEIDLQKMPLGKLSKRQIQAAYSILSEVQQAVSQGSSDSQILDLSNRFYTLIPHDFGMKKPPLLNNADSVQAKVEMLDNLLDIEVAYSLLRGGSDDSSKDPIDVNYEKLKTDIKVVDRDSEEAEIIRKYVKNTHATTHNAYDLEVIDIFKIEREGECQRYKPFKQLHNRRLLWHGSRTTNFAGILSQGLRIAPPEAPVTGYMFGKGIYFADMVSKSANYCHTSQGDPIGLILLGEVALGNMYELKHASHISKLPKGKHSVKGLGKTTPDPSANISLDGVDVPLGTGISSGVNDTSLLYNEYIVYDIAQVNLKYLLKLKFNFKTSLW

Compound | IC50 [nM]
CC1NC(=O)N(c2cccc(Cc3n[nH]c(=O)c4ccccc34)c2)C1=O (centres unmarked) [Compound 9a] | < 10
O=C1CNC(=O)N1c1cccc(Cc2n[nH]c(=O)c3ccccc23)c1 [Compound 9c] | < 10
CC(C)(C)OC(=O)CN1C(=O)N(c2cc(Cc3n[nH]c(=O)c4ccccc34)ccc2F)C(=O)C1(C)C [Compound 35B] | < 10
CC1(C)C(=O)N(c2cc(Cc3n[nH]c(=O)c4ccccc34)ccc2F)C(=O)N1CC(=O)N1CCOCC1 [Compound 37Ba] | < 10
CC1(C)C(=O)N(c2cc(Cc3n[nH]c(=O)c4ccccc34)ccc2F)C(=O)N1CC(=O)N1CCC(O)CC1 [Compound 37Bb] | < 10
CN1CCN(C(=O)CN2C(=O)N(c3cc(Cc4n[nH]c(=O)c5ccccc45)ccc3F)C(=O)C2(C)C)CC1 [Compound 37Bi] | < 10
CC1(C)C(=O)N(c2cc(Cc3n[nH]c(=O)c4ccccc34)ccc2F)C(=O)N1CC(=O)N1CCC(N2CCOCC2)CC1 [Compound 37Bl] | < 10
COC(=O)CN1C(=O)N(c2cc(Cc3n[nH]c(=O)c4ccccc34)ccc2F)C(=O)C1C (centres unmarked) [Compound 39, {3-[2-Fluoro-5-(4-oxo-3,4-dihydro-phthalazin-1-ylmethyl)-phenyl]-5-methyl-2,4-dioxo-imidazolidin-1-yl}-acetic acid methyl ester] | < 10
CC1C(=O)N(c2cc(Cc3n[nH]c(=O)c4ccccc34)ccc2F)C(=O)N1CC(N)=O (centres unmarked) [Compound 40a, 2-{3-[2-Fluoro-5-(4-oxo-3,4-dihydro-phthalazin-1-ylmethyl)-phenyl]-5-methyl-2,4-dioxo-imidazolidin-1-yl}-acetamide] | < 10

Continued, values first:

IC50 [nM] | Compound
< 10 | CC1CN(C(=O)CC2NC(=O)N(c3cc(Cc4n[nH]c(=O)c5ccccc45)ccc3F)C2=O)CC(C)O1 (centres unmarked) [Compound 43a]
< 10 | COCCN1CCN(C(=O)CC2NC(=O)N(c3cc(Cc4n[nH]c(=O)c5ccccc45)ccc3F)C2=O)CC1 (centres unmarked) [Compound 43c]
< 10 | CN1CCN(C(=O)CC2NC(=O)N(c3cc(Cc4n[nH]c(=O)c5ccccc45)ccc3F)C2=O)CC1 (centres unmarked) [Compound 43d]
< 10 | O=C(CC1NC(=O)N(c2cc(Cc3n[nH]c(=O)c4ccccc34)ccc2F)C1=O)N1CCCN(CCO)CC1 (centres unmarked) [Compound 43f]
< 10 | O=C(CC1NC(=O)N(c2cc(Cc3n[nH]c(=O)c4ccccc34)ccc2F)C1=O)N1CCC(N2CCOCC2)CC1 (centres unmarked) [Compound 43g]
